Source: patent publication US20230322735A1, “AZETIDINYL TRYPTAMINES AND METHODS OF TREATING PSYCHIATRIC DISORDERS” (priority 2020, published 2023)
Where a name gives a salt, the structure may show the parent alone.

System: monoamine oxidase A and B (MAO-A and MAO-B)
Experiment: Stability in the presence of monoamine oxidases (human liver mitochondria preparation)
Conditions: for Remaining (t = 60 min): human liver mitochondria, 1 μM; for half-life at 1 μM / microsomal CLint at 1 μM: human, human liver mitochondria preparation, pH 7.4; for stability in the presence of MAO compared with dimethyl counterpart: vs DMT, psilocin, 5-MeO-DMT respectively

## Oc1cccc2[nH]cc(CCN3CCC3)c12 [Compound 2, 3-(2-(azetidin-1-yl)ethyl)-1H-indol-4-ol]
  Remaining (t = 60 min): 88.00%
  half-life at 1 μM: > 2.42 h
  microsomal CLint at 1 μM: < 16 µL/min/mg

## c1ccc2c(CCN3CCC3)c[nH]c2c1 [Compound 1, 3-(2-(azetidin-1-yl)ethyl)-1H-indole fumarate]
  half-life at 1 μM: > 2.42 h
  microsomal CLint at 1 μM: < 16 µL/min/mg
  stability in the presence of MAO compared with dimethyl counterpart: greater stability

## COc1ccc2[nH]cc(CCN3CCC3)c2c1 [Compound 3, 3-(2-(azetidin-1-yl)ethyl)-5-methoxy-1H-indole fumarate]
  half-life at 1 μM: > 2.42 h
  microsomal CLint at 1 μM: < 16 µL/min/mg
  stability in the presence of MAO compared with dimethyl counterpart: greater stability

## CN(C)CCc1c[nH]c2ccccc12 [DMT, N,N-dimethyltryptamine, reference compound]
  Remaining (t = 60 min): 8.9%
